These results are taken from paper PMC9911399, “Two distinct binding modes provide the RNA-binding protein RbFox with extraordinary sequence specificity”.

Numbering of substitutions follows the chain as printed; changes in the protein carry UniProt numbers. The list shows a part of the results.

The labels stand for the following.
T1: RBFOX1 RRM RbFoxmut (Fox-RRM*) (Homo sapiens, UniProt Q9NWB1 109-208, R118D;E147R;N151S;E152T)
T1 sequence: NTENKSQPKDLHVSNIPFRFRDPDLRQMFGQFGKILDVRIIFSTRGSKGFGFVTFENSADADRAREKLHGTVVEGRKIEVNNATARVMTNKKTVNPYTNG

B1: UUUGGGG (DNA:RNA)
RNA: GGGAGACCGGAAUUCAGAUUGUCCUUUGGGGUUAAAUCCCGUCGUAGCCACCA
DNA 1: CAATCTGAATTCCGGTCTCCC
DNA 2: TGGTGGCTACGACGGGATT
B2: CCCGGCU (DNA:RNA)
RNA: B1 RNA with U25C, U26C, U27C, G30C, G31U
DNA 1: CAATCTGAATTCCGGTCTCCC
DNA 2: TGGTGGCTACGACGGGATT
B3: AUAUGAA (DNA:RNA)
RNA: B1 RNA with U25A, U27A, G28U, G30A, G31A
DNA 1: CAATCTGAATTCCGGTCTCCC
DNA 2: TGGTGGCTACGACGGGATT
B4: UGUCGUC (DNA:RNA)
RNA: B1 RNA with U26G, G28C, G30U, G31C
DNA 1: CAATCTGAATTCCGGTCTCCC
DNA 2: TGGTGGCTACGACGGGATT
B5: ACCUGUU (DNA:RNA)
RNA: B1 RNA with U25A, U26C, U27C, G28U, G30U, G31U
DNA 1: CAATCTGAATTCCGGTCTCCC
DNA 2: TGGTGGCTACGACGGGATT
B6: GAGCUCG (DNA:RNA)
RNA: B1 RNA with U25G, U26A, U27G, G28C, G29U, G30C
DNA 1: CAATCTGAATTCCGGTCTCCC
DNA 2: TGGTGGCTACGACGGGATT
B7: CGACUGC (DNA:RNA)
RNA: B1 RNA with U25C, U26G, U27A, G28C, G29U, G31C
DNA 1: CAATCTGAATTCCGGTCTCCC
DNA 2: TGGTGGCTACGACGGGATT
B8: UAAAAAC (DNA:RNA)
RNA: B1 RNA with U26A, U27A, G28A, G29A, G30A, G31C
DNA 1: CAATCTGAATTCCGGTCTCCC
DNA 2: TGGTGGCTACGACGGGATT
B9: GGGUCCA (DNA:RNA)
RNA: GGGAGACCGGAAUUCAGAUUGUCCGGGUCCAUUAAAUCCCGUCGUAGCCACCA
DNA 1: CAATCTGAATTCCGGTCTCCC
DNA 2: TGGTGGCTACGACGGGATT
B10: AAACACC (DNA:RNA)
RNA: B9 RNA with G25A, G26A, G27A, U28C, C29A, A31C
DNA 1: CAATCTGAATTCCGGTCTCCC
DNA 2: TGGTGGCTACGACGGGATT
B11: CGGGCCA (DNA:RNA)
RNA: B9 RNA with G25C, U28G
DNA 1: CAATCTGAATTCCGGTCTCCC
DNA 2: TGGTGGCTACGACGGGATT
B12: UCGCACA (DNA:RNA)
RNA: B9 RNA with G25U, G26C, U28C, C29A
DNA 1: CAATCTGAATTCCGGTCTCCC
DNA 2: TGGTGGCTACGACGGGATT
B13: AGCCGGG (DNA:RNA)
RNA: B1 RNA with U25A, U26G, U27C, G28C
DNA 1: CAATCTGAATTCCGGTCTCCC
DNA 2: TGGTGGCTACGACGGGATT
B14: UUCUUGG (DNA:RNA)
RNA: B1 RNA with U27C, G28U, G29U
DNA 1: CAATCTGAATTCCGGTCTCCC
DNA 2: TGGTGGCTACGACGGGATT
B15: UGCGUUU (DNA:RNA)
RNA: B1 RNA with U26G, U27C, G29U, G30U, G31U
DNA 1: CAATCTGAATTCCGGTCTCCC
DNA 2: TGGTGGCTACGACGGGATT
B16: UUCGACA (DNA:RNA)
RNA: B1 RNA with U27C, G29A, G30C, G31A
DNA 1: CAATCTGAATTCCGGTCTCCC
DNA 2: TGGTGGCTACGACGGGATT
B17: CCGUUGA (DNA:RNA)
RNA: B9 RNA with G25C, G26C, C29U, C30G
DNA 1: CAATCTGAATTCCGGTCTCCC
DNA 2: TGGTGGCTACGACGGGATT
B18: AAGCAUC (DNA:RNA)
RNA: B9 RNA with G25A, G26A, U28C, C29A, C30U, A31C
DNA 1: CAATCTGAATTCCGGTCTCCC
DNA 2: TGGTGGCTACGACGGGATT
B19: AGGUUGU (DNA:RNA)
RNA: B9 RNA with G25A, C29U, C30G, A31U
DNA 1: CAATCTGAATTCCGGTCTCCC
DNA 2: TGGTGGCTACGACGGGATT
B20: UCGGGGU (DNA:RNA)
RNA: B1 RNA with U26C, U27G, G31U
DNA 1: CAATCTGAATTCCGGTCTCCC
DNA 2: TGGTGGCTACGACGGGATT
B21: UCUUCUC (DNA:RNA)
RNA: B9 RNA with G25U, G26C, G27U, C30U, A31C
DNA 1: CAATCTGAATTCCGGTCTCCC
DNA 2: TGGTGGCTACGACGGGATT
B22: UGGGGGG (DNA:RNA)
RNA: B1 RNA with U26G, U27G
DNA 1: CAATCTGAATTCCGGTCTCCC
DNA 2: TGGTGGCTACGACGGGATT
B23: GCAGGGC (DNA:RNA)
RNA: B1 RNA with U25G, U26C, U27A, G31C
DNA 1: CAATCTGAATTCCGGTCTCCC
DNA 2: TGGTGGCTACGACGGGATT
B24: UGGCGUC (DNA:RNA)
RNA: B9 RNA with G25U, U28C, C29G, C30U, A31C
DNA 1: CAATCTGAATTCCGGTCTCCC
DNA 2: TGGTGGCTACGACGGGATT
B25: ACACCAG (DNA:RNA)
RNA: B9 RNA with G25A, G26C, G27A, U28C, C30A, A31G
DNA 1: CAATCTGAATTCCGGTCTCCC
DNA 2: TGGTGGCTACGACGGGATT
B26: CACCAGU (DNA:RNA)
RNA: B1 RNA with U25C, U26A, U27C, G28C, G29A, G31U
DNA 1: CAATCTGAATTCCGGTCTCCC
DNA 2: TGGTGGCTACGACGGGATT
B27: AGAAUUC (DNA:RNA)
RNA: B9 RNA with G25A, G27A, U28A, C29U, C30U, A31C
DNA 1: CAATCTGAATTCCGGTCTCCC
DNA 2: TGGTGGCTACGACGGGATT
B28: GAAACGG (DNA:RNA)
RNA: B9 RNA with G26A, G27A, U28A, C30G, A31G
DNA 1: CAATCTGAATTCCGGTCTCCC
DNA 2: TGGTGGCTACGACGGGATT
B29: GAACUUU (DNA:RNA)
RNA: B9 RNA with G26A, G27A, U28C, C29U, C30U, A31U
DNA 1: CAATCTGAATTCCGGTCTCCC
DNA 2: TGGTGGCTACGACGGGATT
B30: CCUAUAU (DNA:RNA)
RNA: B1 RNA with U25C, U26C, G28A, G29U, G30A, G31U
DNA 1: CAATCTGAATTCCGGTCTCCC
DNA 2: TGGTGGCTACGACGGGATT
B31: CGUUGAC (DNA:RNA)
RNA: B9 RNA with G25C, G27U, C29G, C30A, A31C
DNA 1: CAATCTGAATTCCGGTCTCCC
DNA 2: TGGTGGCTACGACGGGATT

The assay deals with T1, RBFOX1 RRM RbFoxmut (Fox-RRM*). Nature of the assay: EMSA; HiTS-Eq, 1 nM pool, 10 min; buffer printed only for the single-RNA assays: 10 mM Tris pH 7.5, 150 mM NaCl, 3.4 mM EDTA, 0.001% NP-40, 30 C. The following applies: tags: His6 N-terminal (pET28a); label: 5' 32P. The method, boiled down:
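Purified wild-type or mutant RbFox RRM at increasing concentrations was equilibrated with 1 nM of 5′-radiolabelled RNA carrying 7 randomized nucleotides for 10 min in 50 µL. Unbound RNA was separated by 8% native PAGE and sequenced. Relative association constants came from read-count changes of each RNA species compared with the control reaction, normalised to the cognate motif.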
In general terms: In EMSA bound probe runs differently from free probe, usually more slowly.
B1: the binding signal is 0.0732 KA relative to UGCAUGU.

For B2, the binding signal was 0.0941 KA relative to UGCAUGU. As for B3, the binding signal was 0.135 KA relative to UGCAUGU. In the case of B4, the binding signal was 0.119 KA relative to UGCAUGU. Regarding B5, the binding signal was 0.114 KA relative to UGCAUGU.

Regarding B6, the binding signal was 0.135 KA relative to UGCAUGU. With B7, the binding signal was 0.103 KA relative to UGCAUGU. For B8, the binding signal was 0.0581 KA relative to UGCAUGU. The result for B9 reads 0.124 KA relative to UGCAUGU; that for B10, 0.0523 KA relative to UGCAUGU; that for B11, 0.0815 KA relative to UGCAUGU. Next, B12: 0.069 KA relative to UGCAUGU. Turning to B13, the binding signal is 0.0677 KA relative to UGCAUGU. Regarding B14, the binding signal is 0.0878 KA relative to UGCAUGU. As to B15, the binding signal was 0.0934 KA relative to UGCAUGU. Next, B16: 0.0669 KA relative to UGCAUGU. In the case of B17, the binding signal was 0.112 KA relative to UGCAUGU. The result for B18 reads 0.196 KA relative to UGCAUGU; that for B19, 0.332 KA relative to UGCAUGU.

For B20, the binding signal is 0.121 KA relative to UGCAUGU. As for B21, the binding signal was 0.0635 KA relative to UGCAUGU. As to B22, the binding signal was 0.0903 KA relative to UGCAUGU. Take B23: the binding signal was 0.0579 KA relative to UGCAUGU. As for B24, the binding signal is 0.16 KA relative to UGCAUGU. Take B25: the binding signal was 0.113 KA relative to UGCAUGU. As for B26, the binding signal is 0.0817 KA relative to UGCAUGU.

On to B27, for which the binding signal is 0.0834 KA relative to UGCAUGU. Consider B28, for which the binding signal is 0.0484 KA relative to UGCAUGU. Turning to B29, the binding signal is 0.0595 KA relative to UGCAUGU. On to B30, for which the binding signal is 0.104 KA relative to UGCAUGU. As for B31, the binding signal is 0.125 KA relative to UGCAUGU.
